From patent publication US12297265B2, “Antibody and use thereof” (SICHUAN KELUN-BIOTECH BIOPHARMACEUTICAL CO., LTD., priority 2018, dated 2025)

Key:
[1] = target: T1, human Claudin18.2 (Homo sapiens, UniProt P56856); test: Cellular ELISA on L929-Claudin 18.2 cells; type: binding; parameters: expressed in transfected cells; host or cells: L929, infected with pLVX-IRES-puro lentivirus, puromycin-selected monoclonal line; cells were formaldehyde-fixed for the cellular ELISA
Method: Human Claudin18.2 is a four transmembrane protein and has a complex structure. Cellular ELISA was thus carried out to maintain the structure of Claudin18.2. The stable cell line L929-Claudin 18.2 constructed in Example 1 were used for detection. Specifically, L929-Claudin 18.2 adherent cells were detached by 2 mM EDTA treatment. The cells were resuspended and adjusted to 2×10^5/mL and 100 μL of the resuspension was plated into 96 well plate and incubated overnight at 37° C. The next day, the media was removed, and the plate was washed with PBS once. 100 μL/well 4% formaldehyde was added to the plate. After 30 min of incubation at room temperature, formaldehyde was removed, followed by washing twice with PBS. Blocking buffer (PBS containing 2% BSA) was then added to the plate at 100 μL/well, and incubated at 37° C. for 2 h. After removal of blocking buffer, 100 μL/well of serially diluted antibodies (starting from 1 μM, with 4-fold dilution, for a total of 11 concentrations) were added to the corresponding wells, which were incubated at 37° C. for 2h afterwards. The plate was washed with 250 μL PBST for 5 times, and was allowed to stand for 2 min each time. 100 μL/well of horseradish peroxidase labeled anti-Human IgG secondary antibody (HRP-anti-Human IgG, Jackson ImmunoResearch, 109-035-003) diluted 1:10000 in PBS (containing 2% BSA) was added to the plate. The plate was incubated at 37° C. for 1 h and washed with 250 μL PB ST 6 times, wherein the plate was allowed to stand for 2 min each time. 100 μL/well of TMB solution (Thermo, 34029) was added. The reactions were incubated at 37° C. for 20 min and stopped with 50 μL 2 mol/L H2504. The absorbance at 450 nm was read on a plate reader (MD, SpectraMax M2) and the results were subjected to curve fitting by Graphpad Prism.

[2] = system: HEK293T-Claudin 18.2 cells; test: NK cell mediated ADCC on HEK293T-Claudin 18.2 cells (LDH); type: cell-based; settings: HEK293T-Claudin 18.2 target cells, NK92MI-CD16a effector cells; Table 13
Method: (§1) The steps were as follows: HEK293T-Claudin 18.2, L929-Claudin 18.2, KATOIII-Claudin 18.2 and NUGC-4 cells were harvested and centrifuged followed by adjustment of cell density. 1×10^4/well of cells were plated on a plate and incubated overnight. The medium was removed on the next day. NK92MI-CD16a cells (Huabo Biopharm) were centrifuged, resuspended in MEMA medium and adjusted to 1×10^6/mL, then 50 μL/well cells were added to the corresponding wells. […] For HEK293T-Claudin18.2, L929-Claudin18.2 and KATOIII-Claudin18.2 cells, ten antibody concentrations were tested, starting from 40 μg/mL with 5-fold dilution. For NUGC-4 cells, eleven antibody concentrations were tested, starting from 2 mg/mL with 5-fold dilution. 50 μL/well of the diluted antibodies were added to the corresponding wells and the reactions were left to stand in incubator at 37° C., 5% CO2 and incubated for 5.5h. Lysis buffer was then added to the positive control well and incubated for another 0.5h. 50 μL/well of Lactate Dehydrogenase (LDH) detection agent (DOJINDO LABORATORISE, CK12) were added to the wells and the absorbance at 490 nm were taken every 10 min on a plate reader (MD, SpectraMax M2). The results were imported into Graphpad Prism for curve fitting.
The cell used was HEK293T-Claudin 18.2. The ADCC activity of antibody 2C6.9-hz21 on HEK293T-Claudin 18.2 is stronger than that of IMAB362.

[3] = target: T1, human Claudin18.2; test: Specificity by FACS, HEK293T-human Claudin18.2 cells; type: binding; parameters: expressed in transfected cells; host or cells: L929, infected with pLVX-IRES-puro lentivirus, puromycin-selected monoclonal line; cells were formaldehyde-fixed for the cellular ELISA; settings: antibody 1000 nM
Method: The specificity of candidate antibodies was detected by FACS. The steps are as follows, HEK293T, HEK293T-human Claudin 18.1 and HEK293T-human Claudin18.2 cells were detached and then centrifuged. After washing twice with PBS, the cells were resuspended with PBS containing 1% BSA. 300,000 cells for each cell line were added with the candidate antibodies at a final concentration of 1000 nM, mixed well, and incubated for 1 h at 4° C., protected from light. Then the cells were washed for three times with PBS and FITC-labeled anti-human Fc secondary antibody (BioLegend, 409322) was added, followed by 0.5h of incubation at 4° C. in the dark. Detection was performed by flow cytometry (Beckman, Cytoflex) after washing with PBS for three times.

[4] = system: HEK293T-Claudin 18.2 cells; test: CDC killing of HEK293T-Claudin 18.2 cells (guinea pig serum, CCK8); type: cell-based; settings: 20% guinea pig serum, 3 h
Method: The procedure is described as follows: HEK293T-Claudin 18.2 cells were harvested and centrifuged followed by adjustment of cell density. 5×10^4/well of cells were plated on a plate and incubated overnight. […] Starting from 20 μg/mL, 10 concentrations were prepared with two-fold dilution. The original cell culture media for HEK293T-Claudin 18.2 cells was removed, and the antibody dilutions were added to the corresponding wells, 100 μL/well. 10 μl/well lysis buffer was provided as the positive control. The reactions were left to stand in incubator at 37° C., 5% CO2 and incubated for 3 h. Then, CCK8 (Rhinogen, QDY-003-D) was added at 20 μl/well and allowed to react for 2h. Absorbance at 450 nm were taken on a plate reader (MD, SpectraMax M2). The results were subjected to curve fitting by Graphpad Prism.

[5] = target: T1, human Claudin18.2; test: Cellular ELISA on NUGC-4 cells; type: binding; parameters: cell lines endogenously expressing human Claudin18.2; host or cells: NUGC-4 human gastric cancer cell line
Method: Human Claudin18.2 is a four transmembrane protein and has a complex structure. Cellular ELISA was thus carried out to maintain the structure of Claudin18.2. The stable cell line L929-Claudin 18.2 constructed in Example 1 were used for detection. Specifically, L929-Claudin 18.2 adherent cells were detached by 2 mM EDTA treatment. The cells were resuspended and adjusted to 2×10^5/mL and 100 μL of the resuspension was plated into 96 well plate and incubated overnight at 37° C. The next day, the media was removed, and the plate was washed with PBS once. 100 μL/well 4% formaldehyde was added to the plate. After 30 min of incubation at room temperature, formaldehyde was removed, followed by washing twice with PBS. […] The absorbance at 450 nm was read on a plate reader (MD, SpectraMax M2) and the results were subjected to curve fitting by Graphpad Prism.
To determine binding affinity of the candidate antibodies to cell lines endogenously expressing human Claudin18.2, FACS analysis was performed to detect human Claudin18.2 expression level on NUGC-4 cells (purchased from Japan JCRB cell bank, catalog number: JCRB0834) which endogenously expresses human Claudin18.2. […] The binding affinity between candidate antibodies and NUGC-4 cells was then determined by Cellular ELISA following the same protocol as above.

[6] = system: L929-Claudin 18.2 cells; test: NK cell mediated ADCC on L929-Claudin 18.2 cells (LDH); type: cell-based; settings: L929-Claudin 18.2 target cells, NK92MI-CD16a effector cells
Method: as §1

Max Signal Value (OD450) ([1]; Table 8 experiment): 1 OD450
Max Signal Value (OD450) ([1]; Table 10 experiment): 0.8 OD450
binding to human Claudin 18.2 [3]: specifically bind to human Claudin 18.2
OD450 (Max signal value) [5]: 0.5 OD450
B1: 1E9.2-hz11: humanized antibody of 1E9.2; VH SEQ ID NO: 29, VL SEQ ID NO: 33; heavy chain SEQ ID NO: 102, light chain 103 (antibody)
heavy: EVQLVESGGGLVKPGGSLRLSCAASGFSFSNSAMSWVRQAPGKGLEWVSTISSGDSYTYYADSVKGRFTISRDNAKNSLYLQMNSLRAEDTAVYYCARQGYGNALDYWGQGTLVTVSS[sequence of human IgG1 constant region omitted]
light: DIVMTQSPDSLAVSLGERATINCKSSQSLLNSGNQKNYLTWYQQKPGQPPKLLIYWSSTRESGVPDRFSGSGSGTDFTLTISSLQAEDFAVYYCQNDYYYPLTFGGGTKVEIKRTVAAPSVFIFPPSDEQLKSGTASVVCLLNNFYPREAKVQWKVDNALQSGNSQESVTEQDSKDSTYSLSSTLTLSKADYEKHKVYACEVTHQGLSSPVTKSFNRGEC
modifications: heavy chain amino acid sequence of humanized antibody 1E9.2 hz11; light chain amino acid sequence of humanized antibody 1E9.2 hz11
Max. Cytotoxicity [2]: 83%
maximal killing rate (CDC) [4]: about 82%
Max. Cytotoxicity [6]: 46%
